“And” between values parts separate entries of the source, which are not always exact repeats. Equal values may be shown once.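 Exposure lasted 48 hours, with cells grown in 96-well plates and compounds tested at five concentrations. GI50 = concentration required for 50% inhibition of growth. TGI: total growth inhibition.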 Bridge positions count the residues as written; N and C are the ends. Square brackets hold non-standard residues; d marks the D form. Peptide text beside a SMILES is read from it. * marks the point of attachment. ξ: configuration not given here. X21 = O=C(/C=C/C=C/C=C/C=C/C=C/C(=O)*)NC1=C(O)CCC1=O; NMeA = CN[C@@H](C)C(=O)O; ξF = NC(Cc1ccccc1)C(=O)O; ξA = CC(N)C(=O)O
Test system: NCI-H322M lung
Experiment: DTP human tumour cell line panel, 48 h

| Structure (SMILES) | GI50 | TGI |
| --- | --- | --- |
| COc1cccc(/C=N/[N-]C(=O)c2ccncc2)c1[O-].COc1cccc(/C=N/[N-]C(=O)c2ccncc2)c1[O-].[O]=[U](=[O])([OH2+])[OH2+] | 4.34 µM | > 100 µM |
| COc1cc(-c2cc(=O)c3cc4c(=O)cc(-c5cc(OC)c(OC)c(OC)c5)oc4cc3o2)cc(OC)c1OC | – | > 100 µM |
| Cc1ccc([N+](=O)[O-])cc1N=NC(=O)NNc1cc([N+](=O)[O-])ccc1C | – | > 100 µM |
| Nc1ccc(-c2nc3ccccc3s2)cc1C(F)(F)F | – | 28.9 µM |
| CC(C)CCC[C@@H](C)C1CCC2[C@@H]3CC=C4C[C@@H](C(=O)NCCN(C)C)CC[C@]4(C)C3CC[C@@]21C (stereo partly drawn) | – | > 100 µM |
| CCOP(=O)(OCC)C(C(=O)OC)C(=O)C(=O)Nc1ccc(Cl)cc1Cl (stereo not drawn) | – | > 100 µM |
| CSc1c(C#N)c(N)n(-c2ccc(C)cc2)c(=O)c1C#N | – | > 100 µM |
| O=C(N/C(=C\c1ccc([N+](=O)[O-])cc1)c1nc2ccccc2[nH]1)c1ccccc1 | – | > 100 µM |
| CC1(C)CN=C(NN=C(/C=C/c2ccc(C(F)(F)F)cc2)/C=C/c2ccc(C(F)(F)F)cc2)NC1 | 1.47 µM | 2.92 µM |
| CC1=C(C#N)C(=O)CC(c2ccc(Cl)cc2)N(C)N1 (stereo not drawn) | – | > 100 µM |
| Cc1cc(Nc2nc(-c3cn(-c4ccc(Cl)cc4)nn3)nc3ccccc23)n[nH]1 | 6.99 µM | > 50 µM |
| Cc1cc(-c2nc3ccccc3s2)ccc1NC(=O)[C@@H](N)CCCCN | – | 23.4 µM |
| O=C(Nc1cc(Cl)ccc1O)c1ccc(Nc2ccnc(C(F)(F)F)c2)cc1 | 2.87 µM | > 100 µM |
| CCC/C=C/C=C/C1CC(O)C(O)C(=O)C1CO (stereo not drawn) | – | > 100 µM |
| Cc1[nH]c2ccccc2c1C1Cc2ccccc2N1C(=O)C#Cc1ccc([N+](=O)[O-])cc1 (stereo not drawn) | – | > 100 µM |
| CC(=O)N1CCN(c2ccc(OCC3COC(Cn4ccnc4)(c4ccc(Cl)cc4Cl)O3)cc2)CC1 (stereo not drawn) | – | > 100 µM |
| ClC(Cl)=C1C(=C(Cl)Cl)C(Cl)(Cl)C1(Cl)Cl | – | 27.3 µM |
| CC(C)=CCC/C(C)=C/COC(C)(C)C1=CCC(C)CC1 (stereo not drawn) (tested in a mixture with another compound) | – | > 100 µM |
| O=C1NCC(NC(=O)C(F)(F)F)c2c(Br)sc(Br)c21 (stereo not drawn) | – | > 100 µM |
| O=C1NCCS(=O)(=O)N[C@@H](CC2=CC=CCC2)C(=O)N2CCCC12 (stereo partly drawn) | – | > 100 µM |
| Nc1nc(-c2ccc(Cl)c([N+](=O)[O-])c2)cs1 | – | > 100 µM |
| CC(O)CCCOC(c1ccccc1)(c1ccccc1)c1ccccc1 (stereo not drawn) | – | 27.7 µM |

| Structure (SMILES) | GI50 | TGI |
| --- | --- | --- |
| O=C1c2ccccc2-c2c1c1ccccc1c(=O)n2CCN1CCNCC1 | 3.7 µM | 13.5 µM |
| CCCCNC(=S)N/N=C/c1cccc(C)n1 | – | > 100 µM |
| O=C1Nc2ccccc2/C1=C1\CCc2cc(O)ccc21 | 8.92 µM | > 25 µM |
| NCCNCC1CCNCC1 | – | > 100 µM |
| COc1c(C)n(CCO)ccc1=O | – | > 100 µM |
| CC1=NN(C(=O)CC(=O)Nc2ccccc2F)C(=O)C1N=Nc1ccccc1[N+](=O)[O-] (stereo not drawn) | – | > 100 µM |
| C[C@@H](Cl)[C@H]1CCCN(Cc2ccc(Br)cc2)C1 | – | > 12.5 µM |
| CCOC(CNCCC(=O)OC)OCC | – | > 10 µM |
| COc1cc(/C=C\c2cc(OC)c(OC)c(OC)c2)cc(N/C=C\C(=O)c2c[nH]c3ccccc23)c1OC | 1.2 µM | 16.6 µM |
| CCOC(=O)C1(C(=O)OCC)COS(=O)OC1 | – | > 100 µM |
| Cc1ccc(OCCOCCOCCOCCOc2ccc(C)n(O)c2=S)c(=S)n1O | 0.0278 µM | > 69.4 µM |
| CCCC(=O)C1=C(O)C(Cc2c(O)c(C)c(O)c(C(=O)CCC)c2O)=C(O)C(C)(C)C1=O | – | > 50 µM |
| Cn1cc(-c2csc(-c3cn(CCCCN4CCCCC4)c4ccccc34)n2)c2cccnc21 | 1.71 µM | 3.1 µM |
| COC(=O)C1C(O)C(C(=O)OC)C(C)N(C)C1C (stereo not drawn) | – | > 100 µM |
| O=c1ccn(C2OC(CO)C(P(=O)(O)O)C2O)c(=O)[nH]1 (stereo not drawn) | – | > 100 µM |
| COc1cc2c(cc1OC)[C@H]1CN3CCC[C@H]3C=C1c1ccc(OC)c(O)c1-2 | – | 0.00175 µM |
| COc1ccc(C(CC(=O)c2ccc3c(c2)OCO3)c2c(O)c3ccccc3oc2=O)cc1OC (stereo not drawn) | – | > 100 µM |
| Nc1nc(Cl)cc(NCC2(CO)CCC(CCc3ccccc3)C2)n1 (stereo not drawn) | – | 25 µM |
| CC(=O)O[C@H]1C(=O)[C@@]2(C)[C@H]([C@H](OC(=O)c3ccc(F)cc3)[C@]3(O)C[C@H](OC(=O)[C@H](O)[C@@H](NC(=O)c4ccccc4)c4ccccc4)C(C)=C1C3(C)C)[C@]1(OC(C)=O)CO[C@@H]1C[C@@H]2O | – | > 25 µM |
| COc1ccc(S(=O)(=O)N2C(=O)CCC2C(=O)NN)cc1 (stereo not drawn) | – | > 100 µM |
| O=c1[nH]cnc(NC2C=C(CO)C(O)C2O)c1[N+](=O)[O-] (stereo not drawn) | – | > 100 µM |
| Nc1ccccc1C(=O)/C=C/c1c(O)ccc2ccccc12 | – | > 100 µM |

| Structure (SMILES) | GI50 | TGI |
| --- | --- | --- |
| CCCCn1cnc2c(c(CC#N)nn2-c2ccccc2)c1=N | – | > 100 µM |
| Cc1cc(N/N=C/c2ccccn2)nc2ccccc12 | 0.375 µM | 14.7 µM |
| O=c1[nH]cnc2c1ncn2[C@@H]1C[C@@H]1CO | – | > 100 µM |
| COC(=O)C(=O)C(C(C)=O)C(=O)NCc1ccc(OC)c(OC)c1 (stereo not drawn) | – | > 100 µM |
| C#CCOc1cccc(Nc2ncnc3c(NC(=O)C=C)cccc23)c1 | 26.3 µM | > 100 µM |
| CSC(=Nc1ccccc1)N(c1ccccc1)c1nc(=[N+](C)C)ss1 | – | 27.5 µM |
| CCOC(=O)NC(=O)c1cn(C(CC)COC(=O)NCCCCCCNC(=O)OCC(CC)n2cc(C(=O)NC(=O)OCC)c(=O)[nH]c2=O)c(=O)[nH]c1=O (stereo not drawn) | – | > 100 µM |
| COc1c(O)c2c3c(c(C)cc(O)c3c1O)C(=O)C(O)(C(C)(C)C(C)=O)C2=O (stereo not drawn) | – | > 100 µM |
| NNCCc1ccc(NC(=O)CCCc2ccc(C(=O)Nc3ccccc3N)cc2)cc1 | 12.1 µM | > 100 µM |
| Cc1cc2c([N+](=O)[O-])cc3c(c2o1)C(=O)C=CC3=O | – | 39.5 µM |
| COc1cc2nc(-c3cccs3)oc(=O)c2cc1OC | – | > 100 µM |
| Nc1c(-c2ccccc2-c2c(N)[n+]([O-])c3ccccc3[n+]2[O-])[n+]([O-])c2ccccc2[n+]1[O-] | – | > 100 µM |
| COc1ccc(-c2oc(/C=N/NC(N)=S)c([N+](=O)[O-])c2-c2ccc(OC)c(OC)c2)cc1OC | – | > 100 µM |
| CCCc1cc(=O)n2c(C(=O)Nc3ccc(Cl)cc3C)c(C(=O)Nc3ccc(F)cc3)sc2n1 | 46.8 µM | > 150 µM |
| O=C(O)c1cc(-c2ccc3c(O)c(O)ccc3c2)ccc1O | – | > 75 µM |
| COC(=O)c1c2c(cc3c1CCC3)CCC2 | – | > 100 µM |
| CC(C(=O)c1ccc(Cl)cc1)/C(=N/NC(=O)NN)C(=O)Nc1cccc(C(F)(F)F)c1 (stereo not drawn) | – | > 100 µM |
| CN(C)CCNCCN | – | > 100 µM |
| CCOC(=O)C(Cl)(Cl)/S(=N\S(=O)(=O)c1ccccc1)NC(=O)c1ccccc1 (stereo not drawn) | – | > 100 µM |
| COc1cc2c(cc1O)CCN[C@]21CS[C@@H]2c3c(OC(C)=O)c(C)c4c(c3[C@H](COC1=O)N1[C@@H]2[C@H]2c3c(cc(C)c(OC)c3O)C[C@@H]([C@@H]1O)N2C)OCO4 | 0.00344 µM | 0.25 µM |
| COC(C)(C)[C@@H](O)[C@H]1C[C@H](C)[C@@]2(CC[C@]3(C)[C@@H]2CC[C@@H]2[C@@]4(C)CC[C@@H](OC(C)=O)C(C)(C)[C@@H]4C[C@@H](OC4OC(COC(C)=O)C(O)C(O)C4O)[C@]23C)O1 (stereo partly drawn) | – | 4.48 µM |
| CCC1=NC(C(F)(F)F)(C(F)(F)F)N=C(N2CCOCC2)O1 | – | > 100 µM |

| Structure (SMILES) | GI50 | TGI |
| --- | --- | --- |
| COc1ccc(-c2ccc3c(N4CCOC[C@@H]4C)nc(N4CCOC[C@@H]4C)nc3n2)cc1CO | 0.00516 µM and 0.0202 µM | 0.742 µM and 5.03 µM |
| O=C(/C(=C\c1c(-c2ccccc2)[nH]c2ccccc12)S(=O)(=O)c1ccccc1)c1ccccc1 | > 100 µM | > 100 µM |
| CCN1CCCC(NCc2c3ccccc3c(CNC3CCCN(CC)C3)c3ccccc23)C1 (stereo not drawn) | – | > 59.4 µM |
| CC(=O)OCC1OC(n2cc(I)c(=O)[nH]c2=O)C(OC(C)=O)C(OC(C)=O)C1OC(C)=O (stereo not drawn) | – | > 100 µM |
| O=C(Nc1cc(Nc2ncccc2-c2ncnc3nc[nH]c23)ccc1F)c1cc(C(F)(F)F)cc(C(F)(F)F)c1 | 2.8 µM | > 10 µM |
| O=C1CCCN1c1ccccc1I(=O)=O | > 100 µM | > 100 µM |
| CCOC(=O)c1nc2ccc(C(F)(F)F)cc2nc1Oc1ccc(C#N)cc1 | – | > 100 µM |
| COc1cc2c(Nc3cc(Cl)c(OC)c(Cl)c3)c(C#N)cnc2cc1OCCCN1CCN(C)CC1 | 0.394 µM | 11.7 µM |
| CC1CC(O)C(=O)C(O[C@@H]2C[C@@H]3CC[C@@H]4[C@H](CC[C@]5(C)C(C6=CC(=O)OC6)CC[C@]45O)[C@@]3(C=O)C[C@H]2O)O1 (stereo partly drawn) | – | 0.143 µM |
| O=C(Cc1ccccc1)NN1C(=O)/C(=C\c2ccccc2)SC1=Nc1ccccc1 | – | > 100 µM |
| COC(=O)CCc1cc(OC)c2c(c1)[C@H](C(=O)OC)[C@@H](c1ccc(O)c(OC)c1)O2 | – | > 100 µM |
| CC1NC(=O)[C@H](C)N(C)C(=O)[C@@H]2CCCN2C(=O)[C@@H](NC(=O)C(Cc2ccccc2)NC(=O)/C=C/C=C/C=C/C=C/C=C/C(=O)NC2=C(O)CCC2=O)COC(=O)[C@@H]2CCCN2C1=O (stereo partly drawn) (X21-[ξF]SP[NMeA][ξA]P; ester 2-C) | – | > 100 µM |
| CC(C)c1[nH]nc2c1N=C(c1ccccc1Cl)c1cc([N+](=O)[O-])ccc1N2 | 9.97 µM | > 25 µM |
| CCCC/C(=C\C1=C(C)C(=O)C(OC)=C(OC)C1=O)C(=O)O | > 100 µM | > 100 µM |
| COc1nc2ncc([C@@H](OC(C)=O)[C@@H](COC(C)=O)OC(C)=O)nc2c(=O)[nH]1 | – | > 100 µM |
| CCNC(=O)/C(=C/c1ccc(OC)cc1)c1cc(OC)c(OC)c(OC)c1 | – | > 100 µM |
| CN(Cc1ccccc1)c1cc(=O)n(C)c(=O)[nH]1 | – | > 100 µM |
| Cn1c(=O)nc2n(-c3cc(C(F)(F)F)cc(C(F)(F)F)c3)c3ccccc3nc-2c1=O | – | > 100 µM |
| CCCCCCCCCCNC(=O)CI | 16.2 µM | 30.4 µM |
| CC[n+]1[b-](C(C)(C)C)n(/N=C/C(C)(C)C)[b-](C(C)(C)C)[n+]1CC | – | > 100 µM |

From PubChem BioAssay (NCI)
